Measurements as given in the supplement of paper PMC4604168 (melanoma cell lines).
Some of the results follow. Repeats are few or missing, and single values can be far off.
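Also: cells treated in 1,536-well plates, then fixed and DAPI-stained, with nuclei counted from automated high-throughput microscope images.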

Each compound was assayed on IST-MEL1 (assay: cell count relative to DMSO control; melanoma cells; higher = more viable cells). Conditions: library dose: standard library concentration; 72 h.
COc1cc2c(Oc3ccc4[nH]c(C)cc4c3F)ncnc2cc1OCCCN1CCCC1 [cediranib] + Cn1cc(/C=C2\C(=O)Nc3cccnc32)c2ccccc21 [GW441756] (first compound 2 µM, partner dose 2 µM) gave a cell count of 105%. Work on CCCCCCCCc1ccc(CCC(N)(CO)CO)cc1 [fingolimod] + Cn1cncc1[C@@](N)(c1ccc(Cl)cc1)c1ccc2c(c1)c(-c1cccc(Cl)c1)cc(=O)n2C [tipifarnib] (first compound 10 µM, partner dose 0.05 µM) yielded a cell count of 11.1%. CCc1ccc(CCOc2ccc(CC3SC(=O)NC3=O)cc2)nc1 (stereo not given) [pioglitazone] + Cc1cc([N+](=O)[O-])ccc1NS(=O)(=O)c1cc(Cl)ccc1Cl [FH535] (first compound 10 µM, partner dose 5 µM) gave a cell count of 57.1%. CCCCCCCCc1ccc(CCC(N)(CO)CO)cc1 [fingolimod] + COCC[n+]1c2c(n(Cc3cnccn3)c1C)C(=O)c1ccccc1C2=O [YM155] (first compound 10 µM, partner dose 0.002 µM) was tested, and the cell count was 13.7%. With NC(=O)c1ccc(N(C(N)=O)c2c(F)cccc2F)nc1-c1ccc(F)cc1F + O=C1NC(=O)/C(=C/c2ccc(-c3ccc(F)cc3O)o2)S1 [AS252424] (first compound 2 µM, partner dose 5 µM) the cell count was 93.1%. With NC(=O)c1ccc(N(C(N)=O)c2c(F)cccc2F)nc1-c1ccc(F)cc1F + Cc1nc(Nc2ncc(C(=O)Nc3c(C)cccc3Cl)s2)cc(N2CCN(CCO)CC2)n1 [dasatanib] (first compound 2 µM, partner dose 0.02 µM) the cell count was 72.3%. With CC(C)(C)c1cnc(CSc2cnc(NC(=O)C3CCNCC3)s2)o1 + COc1cc2c(Oc3ccc4[nH]c(C)cc4c3F)ncnc2cc1OCCCN1CCCC1 [cediranib] (first compound 0.05 µM, partner dose 2 µM) the cell count was 89.1%. Cc1ccc(NC(=O)c2cccc(N(C)C)c2)cc1NC(=O)c1ccc(O)cc1 + CO[C@@H]1[C@H](N(C)C(=O)c2ccccc2)C[C@H]2O[C@]1(C)n1c3ccccc3c3c4c(c5c6ccccc6n2c5c31)C(=O)NC4 [Midostaurin] (first compound 10 µM, partner dose 0.4 µM) gave a cell count of 76.8%. Work on CCCCCCCCc1ccc(CCC(N)(CO)CO)cc1 [fingolimod] + Oc1nc(-c2ccc(C(F)(F)F)cc2)nc2c1CSCC2 [XAV939] (first compound 10 µM, partner dose 10 µM) yielded a cell count of 81.9%. In the case of Cc1ccc(NC(=O)c2cccc(N(C)C)c2)cc1NC(=O)c1ccc(O)cc1 + CN(NC(=O)CC(=O)NN(C)C(=S)c1ccccc1)C(=S)c1ccccc1 [STA4783] (first compound 10 µM, partner dose 0.03 µM), the cell count is reported as 34.3%.

These compounds were tested on LB2518-MEL in the same assay as above. Conditions: library dose: standard library concentration; 72 h.
With CCCCCCCCc1ccc(CCC(N)(CO)CO)cc1 [fingolimod] + Cc1cc([N+](=O)[O-])ccc1NS(=O)(=O)c1cc(Cl)ccc1Cl [FH535] (first compound 10 µM, partner dose 5 µM) the cell count was 22.8%. Work on CN(NC(=O)CC(=O)NN(C)C(=S)c1ccccc1)C(=S)c1ccccc1 + COc1cc2c(Oc3ccc4[nH]c(C)cc4c3F)ncnc2cc1OCCCN1CCCC1 [cediranib] (first compound 0.03 µM, partner dose 2 µM) yielded a cell count of 32.1%. Compound CCc1ccc(CCOc2ccc(CC3SC(=O)NC3=O)cc2)nc1 (stereo not given) [pioglitazone] + O=C1NC(=O)/C(=C/c2ccc(-c3ccc(F)cc3O)o2)S1 [AS252424] (first compound 10 µM, partner dose 5 µM) has a cell count of 84.5%. Cc1ccc(NC(=O)c2cccc(N(C)C)c2)cc1NC(=O)c1ccc(O)cc1 + CCCCCCCCCCCC1=C(O)C(=O)C=C(O)C1=O [Embelin] (first compound 10 µM, partner dose 6 µM) showed a cell count of 82.1%. Cc1ccc(NC(=O)c2cccc(N(C)C)c2)cc1NC(=O)c1ccc(O)cc1 + COc1ccc2c(c1)CCC1C2CCC2(C)C(NCCCCCCN3C(=O)C=CC3=O)CCC12 [U73122] (first compound 10 µM, partner dose 2 µM) gave a cell count of 57%. CC(C)(C)c1cnc(CSc2cnc(NC(=O)C3CCNCC3)s2)o1 + CN(NC(=O)CC(=O)NN(C)C(=S)c1ccccc1)C(=S)c1ccccc1 [STA4783] (first compound 0.05 µM, partner dose 0.03 µM) gave a cell count of 11.8%. CN(NC(=O)CC(=O)NN(C)C(=S)c1ccccc1)C(=S)c1ccccc1 + COc1cc(N2CCC(N3CCN(C)CC3)CC2)ccc1Nc1ncc(Cl)c(Nc2ccccc2S(=O)(=O)C(C)C)n1 [NVP-TAE684] (first compound 0.03 µM, partner dose 0.4 µM) showed a cell count of 24.1%. For CN(NC(=O)CC(=O)NN(C)C(=S)c1ccccc1)C(=S)c1ccccc1 + CCCCCCCCCCCC1=C(O)C(=O)C=C(O)C1=O [Embelin] (first compound 0.03 µM, partner dose 6 µM), the cell count was 15.5%. CC(C)(C)c1cnc(CSc2cnc(NC(=O)C3CCNCC3)s2)o1 + O=C(Nc1ccccc1)c1cc([N+](=O)[O-])ccc1Cl [GW9662] (first compound 0.05 µM, partner dose 10 µM) showed a cell count of 65.5%. CCCCCCCCc1ccc(CCC(N)(CO)CO)cc1 [fingolimod] + CCCS(=O)(=O)Nc1ccc(F)c(C(=O)c2c[nH]c3ncc(Cl)cc23)c1F [PLX4720] (first compound 10 µM, partner dose 0.4 µM) was tested, and the cell count was 0.309%. With CCCCCCCCc1ccc(CCC(N)(CO)CO)cc1 [fingolimod] + O=C(O)C(=O)Nc1sc2c(c1C(=O)O)CCNC2 [TCS401] (first compound 10 µM, partner dose 8.33333 µM) the cell count was 0.181%. For CCc1ccc(CCOc2ccc(CC3SC(=O)NC3=O)cc2)nc1 (stereo not given) [pioglitazone] + COC(=O)c1sccc1S(=O)(=O)Nc1ccc(Nc2ccccc2)cc1OC [GSK0660] (first compound 10 µM, partner dose 5 µM), the cell count was 164%. In the case of COc1cc2c(Oc3ccc4[nH]c(C)cc4c3F)ncnc2cc1OCCCN1CCCC1 [cediranib] + COc1cc(N2CCC(N3CCN(C)CC3)CC2)ccc1Nc1ncc(Cl)c(Nc2ccccc2S(=O)(=O)C(C)C)n1 [NVP-TAE684] (first compound 2 µM, partner dose 0.4 µM), the cell count is reported as 95.7%. For CC(C)(C)c1cnc(CSc2cnc(NC(=O)C3CCNCC3)s2)o1 + CCCCCCCCCCCC1=C(O)C(=O)C=C(O)C1=O [Embelin] (first compound 0.05 µM, partner dose 6 µM), the cell count was 75.2%. Work on CCCCCCCCc1ccc(CCC(N)(CO)CO)cc1 [fingolimod] + CN1CCN(c2ccc3nc(-c4c(N)c5c(F)cccc5[nH]c4=O)[nH]c3c2)CC1 [Dovitinib] (first compound 10 µM, partner dose 0.5 µM) yielded a cell count of 0.245%. CCCCCCCCc1ccc(CCC(N)(CO)CO)cc1 [fingolimod] + COc1ccc2c(c1)CCC1C2CCC2(C)C(NCCCCCCN3C(=O)C=CC3=O)CCC12 [U73122] (first compound 10 µM, partner dose 2 µM) gave a cell count of 49.8%. Cc1ccc(NC(=O)c2cccc(N(C)C)c2)cc1NC(=O)c1ccc(O)cc1 + Cc1cc(N2CCOCC2)cc2[nH]c(-c3c(NC[C@@H](O)c4cccc(Cl)c4)cc[nH]c3=O)nc12 [BMS536924] (first compound 10 µM, partner dose 1 µM) was tested, and the cell count was 86%. In the case of NC(=O)c1ccc(N(C(N)=O)c2c(F)cccc2F)nc1-c1ccc(F)cc1F + CCCCCCCCCCCC1=C(O)C(=O)C=C(O)C1=O [Embelin] (first compound 2 µM, partner dose 6 µM), the cell count is reported as 106%. Compound NC(=O)c1ccc(N(C(N)=O)c2c(F)cccc2F)nc1-c1ccc(F)cc1F + Cn1nnc2c(C(N)=O)ncn2c1=O [temozolomide] (first compound 2 µM, partner dose 10 µM) has a cell count of 84%. CN(NC(=O)CC(=O)NN(C)C(=S)c1ccccc1)C(=S)c1ccccc1 + COc1ccc2c(c1)CCC1C2CCC2(C)C(NCCCCCCN3C(=O)C=CC3=O)CCC12 [U73122] (first compound 0.03 µM, partner dose 2 µM) was tested, and the cell count was 100%. With NC(=O)c1ccc(N(C(N)=O)c2c(F)cccc2F)nc1-c1ccc(F)cc1F + CN(NC(=O)CC(=O)NN(C)C(=S)c1ccccc1)C(=S)c1ccccc1 [STA4783] (first compound 2 µM, partner dose 0.03 µM) the cell count was 16.4%. Cc1ccc(NC(=O)c2cccc(N(C)C)c2)cc1NC(=O)c1ccc(O)cc1 + O=C(Nc1cccc(Cl)c1)Nc1ncc(CCNc2ncnc3ccsc23)s1 [SNS314] (first compound 10 µM, partner dose 0.004 µM) showed a cell count of 67%. Compound CCCCCCCCc1ccc(CCC(N)(CO)CO)cc1 [fingolimod] + COC(=O)c1sccc1S(=O)(=O)Nc1ccc(Nc2ccccc2)cc1OC [GSK0660] (first compound 10 µM, partner dose 5 µM) has a cell count of 0.597%. Compound CCCCCCCCc1ccc(CCC(N)(CO)CO)cc1 [fingolimod] + CCCCCCCCCCCC1=C(O)C(=O)C=C(O)C1=O [Embelin] (first compound 10 µM, partner dose 6 µM) has a cell count of 0.413%. In the case of NC(=O)c1ccc(N(C(N)=O)c2c(F)cccc2F)nc1-c1ccc(F)cc1F + CN1CCN(c2ccc3nc(-c4c(N)c5c(F)cccc5[nH]c4=O)[nH]c3c2)CC1 [Dovitinib] (first compound 2 µM, partner dose 0.5 µM), the cell count is reported as 52.4%.
